Experimental data taken from PubChem BioAssay AID1346428 (National Center for Advancing Translational Sciences (NCATS), 2018).
The whole screen tested about 48,000 compounds, of which about 1,200 (2.5%) were called active. About 2% were inconclusive and are not listed.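 How the source made its calls: active means activation of at least 60% and not above a set upper limit (about 1 call in 100 departs from these limits); inconclusive means activation of 40% to 60%, or above that upper limit; inactive means activation under 40%.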 The list shows a part of the results.

target: Probable G-protein coupled receptor 32 (Homo sapiens) (UniProt O75388); assay: qHTS for Agonists of Human Resolvin D1 Receptor DRV1; settings: CHO-K1 GPR32 beta-arrestin PathHunter luminescence, 90 min; at 76.9 µM; stronger effect = higher value; zero percent set by DMSO-only wells; further: 0% is about no effect
In short: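 Beta-arrestin recruitment read-out: luminescence from complemented beta-Gal in CHO-K1 GPR32 PathHunter cells, measured 1 h after detection reagent at ambient temperature following 90 min compound exposure at 37 °C; DMSO served as basal (EC0) control.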

Sequence of UniProt O75388 (O75388 whole entry, looked up): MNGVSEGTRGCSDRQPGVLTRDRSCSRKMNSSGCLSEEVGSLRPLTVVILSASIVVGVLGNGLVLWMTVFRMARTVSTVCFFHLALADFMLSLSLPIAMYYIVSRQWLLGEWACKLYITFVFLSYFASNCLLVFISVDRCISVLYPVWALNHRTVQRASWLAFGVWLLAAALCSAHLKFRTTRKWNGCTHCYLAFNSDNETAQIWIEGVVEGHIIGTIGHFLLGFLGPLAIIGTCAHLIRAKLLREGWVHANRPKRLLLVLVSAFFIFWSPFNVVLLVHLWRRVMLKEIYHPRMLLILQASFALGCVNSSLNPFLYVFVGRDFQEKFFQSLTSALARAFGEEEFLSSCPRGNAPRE

activation, inactive:
CC1=C(C(=O)Nc2cccc(F)c2)C2(CCCCCC2)OC1=O -12.1%
COc1cc(OC)c(NC(=O)Cn2c(=O)nc(-c3ccccc3)c3ccccc32)cc1Cl 11.3%
COCCCNc1oc(-c2ccc(COc3ccccc3C)o2)nc1C#N -14.9%
CCC(CC)C(=O)Nc1cccc(-c2cn3cccnc3n2)c1 28.2%
COc1cccc(OCCn2c(-c3ccc(Cl)cc3)nc3ccccc3c2=O)c1 19%
Cc1ccc2c(=O)c(C(=O)c3cccc(Cl)c3)cn(CC(=O)NCc3ccccc3)c2n1 -0.317%
COc1cccc(Cn2c(=O)n(-c3cc(C)cc(C)c3)c(=O)c3oc4ccccc4c32)c1 -14.1%
CCOc1cc(CNC(=O)c2cc(-c3ccc(Cl)s3)nc3ccccc23)ccc1OC -4.61%
COc1ccc(CCNC(=O)Cn2c(=O)cc(C(F)(F)F)c3c(C)nn(C)c32)c(OC)c1 -3.52%
CCc1ccc(C2=CC(c3cccc(OC)c3OC)n3c(nc4ccccc43)N2)cc1 (stereo not drawn) -13.3%
CCc1ccc(NC(=O)C2CCN(c3ccc(Sc4ccc(C)cc4)nn3)CC2)cc1 19.5%
Cc1ccc(N2CCN(S(=O)(=O)c3nnc(NC(=O)c4cccc(F)c4)s3)CC2)cc1 11.4%
O=C(Cn1cccc1C(=O)c1ccccc1)NCc1ccc(Cl)cc1 -1.71%
CCCN1CCN(CCCNC(=O)c2cc3c(=O)[nH]c4ccccc4c3s2)CC1 10%
COc1ccc(NC(=O)CNC(=O)Cn2ccc3ccccc3c2=O)c(OC)c1 -4.37%
CCc1ccc(-c2nc(CN3CCCC(C(=O)NCc4ccccc4Cl)C3)c(C)o2)cc1 (stereo not drawn) -18.1%
C=C1C[C@H]2[C@@H]3C=C(C)C4=CC(=O)CC[C@]4(C)[C@H]3CC[C@]2(C)[C@@]1(OC(C)=O)C(C)=O -15.9%
Cc1ccc2c(c1)-c1nc(-c3ccccc3)cc(-c3ccccc3)c1CO2 -7.81%
COc1cc(-c2cc3n(C)c(C)c(CCC(=O)NC4CCC(C)CC4)c(=O)n3n2)cc(OC)c1OC (stereo not drawn) -18.9%
CCOc1ccc(N(CC)S(=O)(=O)N2CCCC(C(=O)NCc3ccccc3OCC)C2)cc1 (stereo not drawn) -22.7%
Cc1nn2c(=O)cc(COC(=O)c3ccccc3NC(=O)C3CCCCC3)nc2s1 -14.9%
O=C(NC1CCCC1)c1ccc2c(c1)N(Cc1c(F)cccc1Cl)C(=O)c1ccccc1S2 -10.4%
COc1cc(C(=O)N(CCCN(C)C)c2nc3c(OC)cccc3s2)cc(OC)c1OC -13.2%
